According to paper PMC4336329 (PLoS ONE, 2015):
About 14,000 (4.5%) of roughly 310,000 compounds showed an effect of 50% or more. The effect is printed as a negative number. The list shows a part of the results.

Target: human ether-à-go-go-related gene (hERG) potassium channel (human, UniProt Q12809)
Assay: primary screen, population patch clamp on CHO cells stably expressing hERG
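Also: peak tail current of the secondary pulse compared with the same well before compound.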

Sequence of human ether-à-go-go-related gene (hERG) potassium channel (Q12809 whole entry, looked up): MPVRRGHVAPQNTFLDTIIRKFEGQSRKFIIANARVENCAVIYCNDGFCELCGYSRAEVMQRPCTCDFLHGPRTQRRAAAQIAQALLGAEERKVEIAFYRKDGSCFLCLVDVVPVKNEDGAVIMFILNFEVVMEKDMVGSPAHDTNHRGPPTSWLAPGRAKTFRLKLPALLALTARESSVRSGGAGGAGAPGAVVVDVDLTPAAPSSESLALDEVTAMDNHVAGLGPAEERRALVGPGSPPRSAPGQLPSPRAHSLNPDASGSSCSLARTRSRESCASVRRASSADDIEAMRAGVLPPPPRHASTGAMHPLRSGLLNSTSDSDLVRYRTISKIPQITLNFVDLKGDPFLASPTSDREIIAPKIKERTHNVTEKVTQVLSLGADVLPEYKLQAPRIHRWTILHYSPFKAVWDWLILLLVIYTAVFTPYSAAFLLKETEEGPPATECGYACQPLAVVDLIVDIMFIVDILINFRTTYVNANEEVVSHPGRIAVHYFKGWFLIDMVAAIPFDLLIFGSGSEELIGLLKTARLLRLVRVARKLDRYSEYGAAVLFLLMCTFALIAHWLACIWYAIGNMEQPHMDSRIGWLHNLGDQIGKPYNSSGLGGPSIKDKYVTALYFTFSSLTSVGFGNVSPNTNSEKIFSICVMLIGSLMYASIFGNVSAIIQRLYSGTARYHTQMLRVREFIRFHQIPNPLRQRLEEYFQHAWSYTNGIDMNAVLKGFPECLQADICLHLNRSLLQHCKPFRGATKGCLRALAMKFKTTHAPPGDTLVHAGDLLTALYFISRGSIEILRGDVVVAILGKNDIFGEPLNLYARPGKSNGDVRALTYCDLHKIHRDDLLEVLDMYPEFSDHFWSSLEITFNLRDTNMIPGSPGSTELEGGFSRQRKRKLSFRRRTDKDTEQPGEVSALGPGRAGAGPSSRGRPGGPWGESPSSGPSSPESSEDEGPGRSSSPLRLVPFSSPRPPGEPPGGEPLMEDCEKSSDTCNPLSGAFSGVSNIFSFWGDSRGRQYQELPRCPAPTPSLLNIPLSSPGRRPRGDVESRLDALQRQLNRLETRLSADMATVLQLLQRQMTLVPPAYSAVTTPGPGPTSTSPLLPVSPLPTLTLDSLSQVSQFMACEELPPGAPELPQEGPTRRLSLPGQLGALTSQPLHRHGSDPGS

SMILES	hERG current change (%, negative = inhibition) at 10uM
N#CC12COC3(CCCCC3C1(C#N)C#N)OC2=N (centres unmarked)	11%
CCCCOC(=O)C(C)Sc1n[nH]c(=O)[nH]c1=O (centres unmarked)	-5.93%
C/C(=N/N1CCN(c2ccccc2)CC1)c1cccc([N+](=O)[O-])c1	14.9%
C#CCOCCOCCOCCNc1nc(N2CCOCC2)nc(N2CCN(C(=O)CCCCCCCCCCNC(=O)[C@@H](CCC(=O)O)n3cc(CCCCCN)nn3)CC2)n1	-10.9%
CCN(CC)S(=O)(=O)c1ccc2nc(SC)sc2c1	-15.3%
CN(CCC#N)C(=O)COC(=O)c1ccc2[nH]c3c(c2c1)CCCC3	15.1%
COC(=O)c1ccccc1NC(=O)CN(c1cc(OC)ccc1OC)S(C)(=O)=O	-5.81%
COc1ccc(Cc2noc(CN(C)C3CC(C)(C)NC(C)(C)C3)n2)cc1OC	16.7%
CCn1cc(-c2cc(C(=O)O)c3ccccc3n2)c(C)n1	24.3%
CCOC(=O)N1CCC(N2CC34C=CC(O3)C(C(=O)Nc3ccc(F)cc3)C4C2=O)CC1 (centres unmarked)	-12.8%
CC1(C)C2CCC1(C)C(OC(=O)CC(=O)O)C2 (centres unmarked)	15.2%
COc1cccc(OC)c1C1=NCC(=O)Nc2c1oc1ccc(Br)cc21	-37.3%
O=C(N/N=C/C(Br)=C/c1ccccc1)c1ccc([N+](=O)[O-])cc1	18.6%
CCCCOc1cccc(C(=O)NNC(=S)NC2CCCCC2)c1	13.5%
COC(=O)C1CCN(C(=O)Cc2ccccc2OC)CC1	19.2%
COc1ccc(C(CNC(=O)c2ccc3c(c2)C(=O)N(CCC(C)C)C3=O)N2CCOCC2)cc1 (centres unmarked)	-4.04%
O=C(CC12CC3CC(CC(Br)(C3)C1)C2)NCc1ccccc1	-30.9%
Cc1nnc(NC(=O)c2oc3ccccc3c2C)s1	12.9%
O=C(NC1CCCC1)c1nc2c(nnn2Cc2ccccc2Cl)c(=O)[nH]1	2.2%
CCOc1ccc(NC(=O)CCC(=O)N/N=C/c2ccc3c(c2)OCO3)cc1	14.8%
CCN1CCCC1CNC(=O)C(=O)Nc1cccc(OC)c1 (centres unmarked)	-1.67%
Cc1ccc(NS(=O)(=O)c2ccc3c(c2)OCCCO3)cc1S(=O)(=O)N1CCOCC1	-6.02%

SMILES	hERG current change (%, negative = inhibition) at 10uM
CN(c1nc2ccccc2nc1Cl)S(=O)(=O)c1ccccc1	-29.8%
COc1ccc(-n2nc(C(=O)NCc3ccco3)c3c4ccccc4n(C)c3c2=O)cc1	18.1%
O=C(N/N=C/c1cc([N+](=O)[O-])ccc1O)c1ccc2c(c1)OCCO2	0.0931%
CCCn1c(SCC(=O)Nc2ccc3c(c2)OCO3)nc2c1c(=O)n(C)c(=O)n2C	6.38%
CC(/C=C1\N=C(SCc2ccccc2)SC1=O)=C\c1ccccc1	12%
CCOc1ccc(NC(=O)CSc2nnc(COc3c(C)cccc3C)o2)cc1	11.9%
CCCc1nc2c(=O)n(C)c(=O)[nH]c2n1CCC	1.89%
C[C@@H]1C(=O)O[C@@H]2[C@H](O)C34[C@@H]5OC(=O)C3(O[C@H]3OC(=O)[C@H](O)C34[C@H](C(C)(C)C)[C@H]5O)[C@@]12O (some centres unmarked)	35.1%
CC[n+]1c(C)sc2cc(C)ccc21.[I-]	15%
CCc1ccc(C2CC(c3ccccc3Cl)Nc3nc(N)nn32)cc1 (centres unmarked)	-11.4%
O=C(c1ccc(S(=O)(=O)N2CCCC2)cc1)N1CCN(c2cccc(Cl)c2)CC1	-1.77%
COc1ccc(-c2cc(=O)oc3cc(OCC(=O)Nc4ccc(CCO)cc4)ccc23)cc1	15.3%
FC(F)(F)c1ccc(CNCCc2c[nH]c3ccccc23)cc1.O=C(O)C(=O)O	-25.5%
CCC(C)NC(=O)c1cc(Cl)ccc1OC (centres unmarked)	-7.43%
Cc1cc(C)cc(OCC(=O)Nc2cccc(S(=O)(=O)NC3=NCCC3)c2)c1	-12.1%
CCCCOC(=O)c1ccccc1C(=O)OCc1ccccc1	10.3%
CCCCSc1nc(C)c(C(C)=O)cc1C#N	14.1%
Cc1cc(OCc2nc(-c3cccnc3)no2)c(C)cc1Br	5.03%
O=C(Nn1c(SCc2ccc(F)cc2)nc2ccsc2c1=O)c1ccccc1	3.69%
CCOC(=O)c1nc2ccccc2nc1C	-9.85%
Cn1c(=O)n(C)c2cc(/C=C(/C#N)C(=O)NCc3ccco3)ccc21	-12%
Cc1cc(C(=O)CCl)c(C)n1-c1c(C)n(C)n(-c2ccccc2)c1=O	8.16%
